Laboratory results published in PMC9911399, “Two distinct binding modes provide the RNA-binding protein RbFox with extraordinary sequence specificity”.
Where a chain is given by its changes, count along the chain named. This is one part of the list.

T1: RBFOX1 RRM (Homo sapiens, UniProt Q9NWB1 109-208)
T1 sequence: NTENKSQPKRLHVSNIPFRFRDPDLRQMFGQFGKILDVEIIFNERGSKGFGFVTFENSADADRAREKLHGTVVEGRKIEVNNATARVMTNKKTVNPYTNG

B1: CAAACUU (DNA:RNA)
RNA: GGGAGACCGGAAUUCAGAUUGUCCCAAACUUUUAAAUCCCGUCGUAGCCACCA
DNA 1: CAATCTGAATTCCGGTCTCCC
DNA 2: TGGTGGCTACGACGGGATT
B2: AGUUCAG (DNA:RNA)
RNA: B1 RNA with C25A, A26G, A27U, A28U, U30A, U31G
DNA 1: CAATCTGAATTCCGGTCTCCC
DNA 2: TGGTGGCTACGACGGGATT
B3: UAGCGCU (DNA:RNA)
RNA: B1 RNA with C25U, A27G, A28C, C29G, U30C
DNA 1: CAATCTGAATTCCGGTCTCCC
DNA 2: TGGTGGCTACGACGGGATT
B4: ACUUUAG (DNA:RNA)
RNA: GGGAGACCGGAAUUCAGAUUGUCCACUUUAGUUAAAUCCCGUCGUAGCCACCA
DNA 1: CAATCTGAATTCCGGTCTCCC
DNA 2: TGGTGGCTACGACGGGATT
B5: AGAUGCU (DNA:RNA)
RNA: B4 RNA with C26G, U27A, U29G, A30C, G31U
DNA 1: CAATCTGAATTCCGGTCTCCC
DNA 2: TGGTGGCTACGACGGGATT
B6: ACCACGA (DNA:RNA)
RNA: B4 RNA with U27C, U28A, U29C, A30G, G31A
DNA 1: CAATCTGAATTCCGGTCTCCC
DNA 2: TGGTGGCTACGACGGGATT
B7: ACACUUG (DNA:RNA)
RNA: B4 RNA with U27A, U28C, A30U
DNA 1: CAATCTGAATTCCGGTCTCCC
DNA 2: TGGTGGCTACGACGGGATT
B8: CAGUCGU (DNA:RNA)
RNA: B1 RNA with A27G, A28U, U30G
DNA 1: CAATCTGAATTCCGGTCTCCC
DNA 2: TGGTGGCTACGACGGGATT
B9: CUAAUGA (DNA:RNA)
RNA: B1 RNA with A26U, C29U, U30G, U31A
DNA 1: CAATCTGAATTCCGGTCTCCC
DNA 2: TGGTGGCTACGACGGGATT
B10: CACAAAA (DNA:RNA)
RNA: B1 RNA with A27C, C29A, U30A, U31A
DNA 1: CAATCTGAATTCCGGTCTCCC
DNA 2: TGGTGGCTACGACGGGATT
B11: AGCUCGU (DNA:RNA)
RNA: B4 RNA with C26G, U27C, U29C, A30G, G31U
DNA 1: CAATCTGAATTCCGGTCTCCC
DNA 2: TGGTGGCTACGACGGGATT
B12: UUGGCCG (DNA:RNA)
RNA: B4 RNA with A25U, C26U, U27G, U28G, U29C, A30C
DNA 1: CAATCTGAATTCCGGTCTCCC
DNA 2: TGGTGGCTACGACGGGATT
B13: GUACAUC (DNA:RNA)
RNA: B1 RNA with C25G, A26U, A28C, C29A, U31C
DNA 1: CAATCTGAATTCCGGTCTCCC
DNA 2: TGGTGGCTACGACGGGATT
B14: GGGUCUA (DNA:RNA)
RNA: B1 RNA with C25G, A26G, A27G, A28U, U31A
DNA 1: CAATCTGAATTCCGGTCTCCC
DNA 2: TGGTGGCTACGACGGGATT
B15: AACGAGA (DNA:RNA)
RNA: B4 RNA with C26A, U27C, U28G, U29A, A30G, G31A
DNA 1: CAATCTGAATTCCGGTCTCCC
DNA 2: TGGTGGCTACGACGGGATT
B16: UAUCUCA (DNA:RNA)
RNA: B4 RNA with A25U, C26A, U28C, A30C, G31A
DNA 1: CAATCTGAATTCCGGTCTCCC
DNA 2: TGGTGGCTACGACGGGATT
B17: GAAUAAA (DNA:RNA)
RNA: B4 RNA with A25G, C26A, U27A, U29A, G31A
DNA 1: CAATCTGAATTCCGGTCTCCC
DNA 2: TGGTGGCTACGACGGGATT
B18: ACACGAA (DNA:RNA)
RNA: B4 RNA with U27A, U28C, U29G, G31A
DNA 1: CAATCTGAATTCCGGTCTCCC
DNA 2: TGGTGGCTACGACGGGATT
B19: UUUCGCU (DNA:RNA)
RNA: B4 RNA with A25U, C26U, U28C, U29G, A30C, G31U
DNA 1: CAATCTGAATTCCGGTCTCCC
DNA 2: TGGTGGCTACGACGGGATT
B20: GGUACCG (DNA:RNA)
RNA: B4 RNA with A25G, C26G, U28A, U29C, A30C
DNA 1: CAATCTGAATTCCGGTCTCCC
DNA 2: TGGTGGCTACGACGGGATT

The binders below were run against T1, RBFOX1 RRM (assay: EMSA; HiTS-Eq, 1 nM pool, 10 min; buffer printed only for the single-RNA assays: 10 mM Tris pH 7.5, 150 mM NaCl, 3.4 mM EDTA, 0.001% NP-40, 30 C). Details: tags: His6 N-terminal (pET28a); label: 5' 32P.
Method in brief: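 A pool of RNA with 7 randomized nucleotides, 5′-radiolabelled and with DNA-annealed flanks, was equilibrated at 1 nM for 10 min in 50 µL with purified RbFox RRM, wild type or mutant, across increasing protein concentrations. Free RNA was separated by 8% native PAGE, excised, reverse-transcribed, barcoded by PCR and sequenced. Relative association constants were obtained from read-count changes of each RNA species versus the control reaction and normalised to the cognate motif.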

Binder | binding signal
B1 | 0.00124 KA relative to UGCAUGU
B2 | 0.01 KA relative to UGCAUGU
B3 | 0.0105 KA relative to UGCAUGU
B4 | 0.00587 KA relative to UGCAUGU
B5 | 0.0117 KA relative to UGCAUGU
B6 | 0.000467 KA relative to UGCAUGU
B7 | 0.00587 KA relative to UGCAUGU
B8 | 0.0115 KA relative to UGCAUGU
B9 | 0.00907 KA relative to UGCAUGU
B10 | 0.000994 KA relative to UGCAUGU
B11 | 0.0167 KA relative to UGCAUGU
B12 | 0.0281 KA relative to UGCAUGU
B13 | 0.00647 KA relative to UGCAUGU
B14 | 0.00955 KA relative to UGCAUGU
B15 | 0.00507 KA relative to UGCAUGU
B16 | 0.00389 KA relative to UGCAUGU
B17 | 0.000638 KA relative to UGCAUGU
B18 | 0.00347 KA relative to UGCAUGU
B19 | 0.0163 KA relative to UGCAUGU
B20 | 0.0159 KA relative to UGCAUGU
